Assay results as given in PubChem BioAssay AID2676 (National Center for Advancing Translational Sciences (NCATS), 2010).
Out of some 370,000 compounds screened, about 1,100 (0.3%) were called active. This list was built around the results that the source calls inconclusive (neither active nor inactive); the mix of calls is not that of the screen. The call rests on the fitted dose curve; in most records, active means well fitted activation curve with a large enough effect; inconclusive means small, poorly fitted or top-dose-only effect; inactive means flat fitted curve, though single readings scatter. Potencies beside an inconclusive call are fits to weak or partial responses and may not hold up.

Target: Relaxin receptor 1 (Homo sapiens) (UniProt Q9HBX9)
Assay: qHTS Assay for Agonists of the Relaxin Receptor RXFP1; further: nearly all actives have a fitted effect of over 60% in size
Conditions: HEK293T-RXFP1 cAMP TR-FRET, 30 min; series mostly up to 57.5 µM
Outline: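 cAMP rise read by TR-FRET after 30 min, 37C compound exposure (up to 58 uM) in RXFP1-transfected HEK293 cells with Ro 20174 present. EC50 from Hill-equation fits, with 29 nM porcine relaxin as 100% and buffer as basal.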
Potency means the concentration at half of the fitted maximal effect; tags describe the fitted curve by direction and shape.

UniProt Q9HBX9, sequence (Q9HBX9 whole entry, looked up): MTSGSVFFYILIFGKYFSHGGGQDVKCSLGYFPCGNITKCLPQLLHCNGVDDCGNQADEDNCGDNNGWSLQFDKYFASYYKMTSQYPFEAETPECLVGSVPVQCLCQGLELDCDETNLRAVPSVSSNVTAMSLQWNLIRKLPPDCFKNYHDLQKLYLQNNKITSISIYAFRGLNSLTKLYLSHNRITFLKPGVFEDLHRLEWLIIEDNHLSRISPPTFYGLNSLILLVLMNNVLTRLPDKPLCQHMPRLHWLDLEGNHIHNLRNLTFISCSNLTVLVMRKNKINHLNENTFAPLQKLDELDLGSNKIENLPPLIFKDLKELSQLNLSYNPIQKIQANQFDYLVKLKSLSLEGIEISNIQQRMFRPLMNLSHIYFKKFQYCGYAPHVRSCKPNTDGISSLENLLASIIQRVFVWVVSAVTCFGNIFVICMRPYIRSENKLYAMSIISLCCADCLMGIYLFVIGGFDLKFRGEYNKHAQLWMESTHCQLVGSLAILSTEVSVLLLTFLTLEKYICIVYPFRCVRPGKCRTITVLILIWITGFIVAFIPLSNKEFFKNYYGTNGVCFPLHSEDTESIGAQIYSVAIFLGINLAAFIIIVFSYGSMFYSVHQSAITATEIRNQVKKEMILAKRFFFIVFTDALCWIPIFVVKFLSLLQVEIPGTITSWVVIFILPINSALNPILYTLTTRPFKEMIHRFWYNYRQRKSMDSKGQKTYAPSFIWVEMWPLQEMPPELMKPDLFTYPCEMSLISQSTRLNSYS

Potency, inactive:
Cc1nc2ccccc2c2c1CC(C)S2 (stereo unspecified), CC(C)C(OC(=O)CCCC(=O)Nc1nccs1)C(=O)NC1CCCCC1 (stereo unspecified), O=C(CNC(=O)c1ccccc1F)NCCN1C(=O)S/C(=C\c2ccccc2Cl)C1=O, Cc1cc(C)c(S(=O)(=O)/N=C2/C=C(SCC(=O)O)C(=O)c3ccccc32)cc1C, COc1ccc(-c2nnc(SCC(=O)NC3CCCC3)nc2-c2ccc(OC)c(OC)c2)cc1OC, CCN(CC)CCOC(=O)c1c(C)oc2ccc(O)cc12, C[C@@]12CCC=C[C@H]1[C@H](c1ccc(F)c(/C=C/c3ccccc3)c1)N(Cc1ccccc1)C2=O, COc1ccc(N(CC(=O)N/N=C/c2cc(OC)ccc2OC)S(=O)(=O)c2ccccc2)cc1, Cc1ccccc1CNC(=O)c1cnc2sc(N3CCOCC3)nn2c1=O, O=C(Nc1ccc(NC(=O)C2CC2)nc1)c1ccccc1F, CCOc1ccc(N2CC(NC(=O)CCc3ccccc3)CC2=O)cc1 (stereo unspecified), Cn1c(=O)c2c(nc3sccn32)n(C)c1=O, CCN1C(=NCCCOC(C)C)N[C@@H](c2ccccc2)[C@H](C(=O)OC)[C@H]1C, CSCCC(NC(=O)OC(C)(C)C)C(=O)Oc1ccc2c(=O)c(-c3ccc4c(c3)OCCO4)coc2c1 (stereo unspecified)

Potency, inconclusive:
Cc1cc(C)c(C#N)c(SCC(=O)Nc2ccccc2C)n1 39.8 µM [activator, single point], O=c1[nH]c(-c2cccnc2)nc2sc(-c3ccccc3)cc12 35.5 µM [activator, single point], Cc1ccc(-c2nnc3ccc(SC(C)C(=O)O)nn23)cc1 (stereo unspecified) 22.4 µM [activator, partial curve], N=c1c(C(=O)NCC2CCCO2)cc2c(=O)n3ccccc3nc2n1Cc1ccco1 (stereo unspecified) 20 µM [activator, partial curve], CCN(CC)Cc1c(O)ccc2cc(-c3nc4ccccc4n3C)c(=O)oc12 22.4 µM [activator, single point], CCn1c(=NC(=O)c2cccc(N3C(=O)CCC3=O)c2)sc2c(OC)ccc(OC)c21 31.6 µM [activator, single point], CCn1c2c(c3cc(Br)ccc31)CCC/C2=N\O 25.1 µM [activator, partial curve], Cn1c(N)c(C(=O)COC(=O)CCC(=O)c2ccc(F)cc2)c(=O)n(C)c1=O 28.2 µM [activator, partial curve], Cc1ccc(-c2nc3ncccc3o2)cc1NC(=O)COc1ccccc1 39.8 µM [activator, single point], Cc1cc2nnc(SCC(=O)Nc3ccc(F)c(Cl)c3)n2c2ccccc12 39.8 µM [activator, single point], Cc1ccnc(NS(=O)(=O)c2ccc(N3C(=O)c4ccccc4C3=O)cc2)n1 15.8 µM [activator, partial curve], COc1ccc(NC(=O)Cn2c(=O)n(-c3cccc(C(F)(F)F)c3)c(=O)c3sccc32)cc1 35.5 µM [activator, single point], CC(=O)Nc1ccc(S(=O)(=O)NCc2cc(=O)n(C)c(=O)n2C)cc1 28.2 µM [activator, partial curve], COc1cccc2c1Oc1ncccc1N(c1ccc(C(=O)NCc3ccccc3Cl)s1)C2 14.1 µM [activator, partial curve], COc1ccc2cc(C(=O)N3CCN(Cc4ccc5c(c4)OCO5)CC3)[nH]c2c1 39.8 µM [activator, single point], CCOC(=O)N1CCN(C(=O)CSc2ccc3nnc(CCNC(=O)c4ccccc4)n3n2)CC1 31.6 µM [activator, partial curve], CC(=O)c1ccc(NC(=O)c2cc(S(=O)(=O)N3CCCCCC3)cn2C)cc1 31.6 µM [activator, single point], O=C(CNC(=O)c1ccccc1)OCc1cc(=O)n2ccsc2n1 15.8 µM [activator, partial curve], N#Cc1c(N)nc(N2CCCC2)c(C#N)c1-c1ccc(Cl)cc1 35.5 µM [activator, single point], CC(=O)c1cccc(NC(=O)c2cc(-c3ccc(Cl)s3)nc3ccccc23)c1 39.8 µM [activator, single point], CC1=C(C)CC(C(=O)NCc2cccc(Cl)c2)C(C(=O)O)C1 (stereo unspecified) 35.5 µM [activator, single point], Cc1cc(CNC(=O)COc2ccc(C#N)cc2)c2ccccc2n1 15.8 µM [activator, partial curve], CCOC(=O)c1nnn2c3ccccc3c(=O)n(C)c12 15.8 µM [activator, partial curve], COc1ccc(C(=O)c2ccc(-c3ccc(OC)cc3)nc2)cc1 35.5 µM [activator, single point], CC(OC(=O)c1ccc2c(=O)n3c(nc2c1)CCCCC3)C(=O)Nc1ccc(F)cc1Cl (stereo unspecified) 39.8 µM [activator, single point], O=c1[nH]c(S)nc2sc3c(c12)CCCC3 20 µM [activator, partial curve], Cc1nc(C)c(-c2ccc(SCC(=O)Nc3ccc(Br)cc3)nn2)s1 28.2 µM [activator, single point], CC(Sc1nc2ccccc2c(=O)n1C)C(=O)Nc1ccc2c(c1)OCCO2 (stereo unspecified) 39.8 µM [activator, single point], O=C(COC(=O)c1cccc(Br)c1)Nc1cccc2c1C(=O)c1ccccc1C2=O 35.5 µM [activator, single point], COC(=O)c1cc(-c2ccc(OC)cc2F)nc2nc(SC)[nH]c(=O)c12 25.1 µM [activator, partial curve], CCN(c1ccccc1)S(=O)(=O)c1cc(CN2C(=O)c3cccnc3C2=O)ccc1OC 15.8 µM [activator, partial curve], Cn1c(=O)c2c(SCC(=O)NCC3CCCO3)nc(-c3ccccc3Cl)nc2n(C)c1=O (stereo unspecified) 14.1 µM [activator, partial curve], Cc1cc2nc(-c3ccc(OCc4ccccc4F)cc3)cc(C(F)(F)F)n2n1 39.8 µM [activator, single point], Cc1ccc(C(=O)Nc2nnc(COc3ccccc3)s2)cc1 28.2 µM [activator, single point], C=CCOc1cccc(C2C(C(=O)c3ccc(C)o3)=C(O)C(=O)N2Cc2ccncc2)c1 (stereo unspecified) 25.1 µM [activator, partial curve], COCc1[nH]c(=S)c(C#N)cc1C(=O)OC 25.1 µM [activator, partial curve], O=C(Nc1ccc2oc(-c3ccc(Br)cc3)nc2c1)c1cc2ccccc2o1 3.98 µM [activator, partial curve], Cc1ccc(NC(=O)c2ccc(-c3ccccc3)s2)cc1 39.8 µM [activator, single point], CCCN1C(=O)C2(C(C(=O)c3ccc(C)o3)=C(O)C(=O)N2CCCOC)c2ccccc21 (stereo unspecified) 25.1 µM [activator, partial curve], Cc1cc(C)cc(NC(=O)C2CCN(c3nc4ccccc4nc3C(F)(F)F)CC2)c1 39.8 µM [activator, single point], Cc1cccc(C(=O)OCC(=O)c2cccc(Br)c2)c1O 35.5 µM [activator, single point], CC(=O)Nc1ccc(Cc2nc3c([nH]2)c(=O)n(C)c(=O)n3C)cc1 17.8 µM [activator, partial curve], C=CCn1c(NC(=O)c2ccc(C)cc2)nc2ccccc21 39.8 µM [activator, single point], Cc1cc(OCC(=O)Nc2ccc3oc(=O)ccc3c2)ccc1Cl 39.8 µM [activator, single point], S=c1nc(-c2cc(Cl)ccc2Cl)[nH][nH]1 25.1 µM [activator, partial curve], Cc1nc2ccc(-c3nc4ccc(N)cc4[nH]3)cc2[nH]1 39.8 µM [activator, single point], Cc1ccc(C)c(N2CCN(C(c3ccccc3)c3nnc(-c4ccccc4)o3)CC2)c1 (stereo unspecified) 35.5 µM [activator, single point], O=C(Cn1c(=O)n(Cc2ccc(F)cc2)c(=O)c2sc3ccccc3c21)Nc1ccc(F)cc1F 31.6 µM [activator, single point]

Potency, active:
N#Cc1c(-c2ccccc2)nc(SCC(=O)NC2CCCCC2)[nH]c1=O 22.4 µM, CCCC(=O)Nc1nc(C)c(C(C)=O)s1 17.8 µM, COc1ccc(Cl)cc1-c1n[nH]c(=S)o1 6.31 µM, CC[N+](CC)(CCCCS(=O)(=O)[O-])CCNP1(=O)C=C(c2ccccc2)OC(c2ccccc2)=C1 15.8 µM
